Hit rate of the full screen: of about 5,400 compounds, about 190 (3.5%) showed an effect of 50% or more. Some of the results follow.
system: Vero-E6; assay: primary screen, phospholipidosis by LipidTOX staining; higher = more effect of the substance; conditions: 10 µM
Outline: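 Drug-induced phospholipidosis detected with HCS LipidTOX Red reagent in Vero-E6 cells. Compounds tested at 10 μM, with amiodarone (10 μM) as positive control and DMSO (0.1 v/v %) as vehicle.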

SMILES	result_ITMP [%]
O=C(Oc1cccc2cccnc12)c1ccccc1	2.08
CN1CCN(C2CCN(C(=O)Nc3cc(Oc4ccc(NC(=O)C5(C(=O)Nc6ccc(F)cc6)CC5)c(F)c4)ccn3)CC2)CC1	8.61
O=c1[nH]cnc2[nH]ncc12	0.16
Clc1ccc(Nc2nnc(Cc3ccncc3)c3ccccc23)cc1	-1.32
Cn1cc(-c2ccc3nnc(Sc4ccc5ncccc5c4)n3n2)cn1	-7.32
Cc1cc(O)c2c(c1)C(=O)c1cc(O)cc(O)c1C2=O	-2.77
O=C1NC(=O)/C(=C/c2cccc(C(F)(F)F)c2)S1	-9.18
C[C@@H]1CN(Cc2ncccn2)C[C@H]1c1nc2c(cnn2C2CCOCC2)c(=O)[nH]1	-0.2
CC(=O)OCC(=O)[C@@]1(O)[C@@H](C)CC2C3CCC4=CC(=O)C=C[C@]4(C)[C@@]3(F)[C@@H](O)C[C@@]21C (stereo partly drawn)	17.1
C[C@@H]1CC2C3CCC4=CC(=O)C=C[C@]4(C)[C@@]3(F)[C@@H](O)C[C@]2(C)[C@@]1(O)C(=O)COP(=O)([O-])[O-] (stereo partly drawn)	-3.97
CCOc1ccc(-n2c(C(C)N(Cc3cccnc3)C(=O)Cc3ccc(F)c(C(F)(F)F)c3)nc3ncccc3c2=O)cc1 (racemic)	-4.82
N[C@@H](CSCCCO)C(=O)O	0.66
O=C(Oc1ccc([N+](=O)[O-])cc1)N1CCN(Cc2cccc(Oc3ccccc3)c2)CC1	-3.68
C=C1/C(=C\C=C2/CCC[C@]3(C)[C@@H]([C@H](C)/C=C/[C@@H](O)C4CC4)CC[C@@H]23)C[C@@H](O)C[C@@H]1O	-1.18
CC(=O)SCC(Cc1ccccc1)C(=O)NCC(=O)OCc1ccccc1 (stereo not drawn)	-0.18
Cc1cc(C)cc(NC(=O)Cc2ccc(OC(C)(C)C(=O)[O-])cc2)c1	9.78
O=C1OC(OC(=O)c2cccnc2Nc2cccc(C(F)(F)F)c2)c2ccccc21 (stereo not drawn)	-10.8
COC(=O)C1=C(C)NC(C)=C(C(=O)OC(C)C)C1c1cccc2nonc12 (stereo not drawn)	-1.91
O=C(O)c1cc(N2N=C(C(F)(F)F)/C(=C/c3ccc(-c4ccccc4)o3)C2=O)ccc1Cl	-0.75
COc1cc(OC)c(C(=O)CCCCN2CCC3(CC2)NC(=O)NC3=O)cc1NS(=O)(=O)c1ccc(C(F)(F)F)cc1	3.53
CCOC(=O)[C@@]1(CCCCCCOc2ccc(Cl)cc2)CO1	-2.5
COc1cc(Oc2ccnc3cc(OC)c(OC)cc23)ccc1NC(=O)NC(C)c1nccs1 (stereo not drawn)	5.17

SMILES	result_ITMP [%]
Cn1c(Nc2ccc(C(F)(F)F)cc2)nc2cc(Oc3ccnc(-c4ncc(C(F)(F)F)[nH]4)c3)ccc21	-4.12
CN1CCN(c2cc3c(cc2F)c(=O)c(C(=O)O)cn3-c2ccc(F)cc2)CC1	-4.81
O=C(O)CCCC[C@@H]1SC[C@@H]2NC(=O)N[C@@H]21	-4.26
C[C@H](Nc1ncnc2[nH]cnc12)c1cc2cccc(Cl)c2c(=O)n1-c1ccccc1	7.19
Cc1cccc(OCC(O)CNC(C)(C)C)c1C (stereo not drawn)	19.8
CCOc1cc(C(C)(C)C)ccc1C1=N[C@@](C)(c2ccc(Cl)cc2)[C@@](C)(c2ccc(Cl)cc2)N1C(=O)N1CCN(CCCS(C)(=O)=O)CC1	106
CCOC(=O)Nc1ccc(NCc2ccc(F)cc2)nc1N	-1.77
N[C@@H](C(=O)O)[C@@H](OCc1ccccc1)C(=O)O.N[C@H](C(=O)O)[C@H](OCc1ccccc1)C(=O)O	-1.22
CC(C)(C(=O)O)c1ccc(C(=O)CCCN2CCC(OC(c3ccccc3)c3ccccc3)CC2)cc1	-7.29
COCC(=O)Nc1c(I)c(C(=O)NCC(O)CO)c(I)c(C(=O)N(C)CC(O)CO)c1I (stereo not drawn)	-10.1
N[C@@H](CSSC[C@H](N)C(=O)O)C(=O)O	-0.38
NCCCC(O)(P(=O)([O-])O)P(=O)(O)O	0.52
O=C(/C=C/N1C[C@H]2C[C@@H]1CN2c1ccccn1)c1ccccc1O	-9.51
COc1ccc(C(CN(C)C)C2(O)CCCCC2)cc1 (stereo not drawn)	-1.3
CC(C)NC(=O)c1ccc(C#Cc2ccncc2)cn1	-6
CC(O)CCCCn1c(=O)c2c(ncn2C)n(C)c1=O (stereo not drawn)	-8.3
CC(=O)Oc1cc2c(s1)CCN(C(C(=O)C1CC1)c1ccccc1F)C2 (stereo not drawn)	0.85
CS(=O)(=O)N(Cc1ccco1)CC(O)Cn1c2ccccc2c2ccccc21 (stereo not drawn)	0.36
OC[C@H]1O[C@@H](n2cnc3c(NC4CCCC4)nc(Cl)nc32)[C@H](O)[C@@H]1O	-5.56
CC(C)C(=O)Nc1ccc([N+](=O)[O-])c(C(F)(F)F)c1	-4.95
O=C([O-])[C@@H](O)[C@@H](O)[C@H](O)[C@@H](O)C(=O)[O-]	-1.82
Cc1ccccc1/N=N/c1ccc(/N=N/c2c(O)ccc3ccccc23)c(C)c1	-3.54

SMILES	result_ITMP [%]
C#C[C@]1(O)CC[C@H]2[C@@H]3CCC4=CCCC[C@@H]4[C@H]3C(=C)C[C@@]21CC	0.82
C1CCC(N/C(=N/C23CC4CC(CC(C4)C2)C3)N2CCOCC2)CC1	-0.26
COc1cc(C)c2c(Oc3cccc(C(F)(F)F)c3)c(OC)cc(NC(C)CCCN)c2n1 (stereo not drawn)	51.6
C[C@H](c1ccc(F)cc1CCCC(=O)O)N(c1cc(F)ccc1F)S(=O)(=O)c1ccc(Cl)cc1	-2.3
CC1=CC[C@@H](C(C)(C)O)C[C@@H]1O	0.79
CC1(C)CCC2=C(O1)c1ccccc1C(=O)C2=O	-1.72
N[C@@H](Cc1cc(-c2ccc(Cl)cc2Cl)cc(CP(=O)(O)O)c1O)C(=O)O	-1.4
C[n+]1ccccc1CN=O	8.51
CCCC1(CCC)CCC2(CCN(CCCN(CC)CC)C2)CC1	109
Cc1onc(-c2ccccc2)c1C(=O)NC1C(=O)N2[C@@H]1SC(C)(C)[C@@H]2C(=O)[O-] (stereo partly drawn)	-4.06
OCCN1C[C@H](O)[C@@H](O)[C@H](O)[C@H]1CO	-8.13
CCC(=O)NC1CCc2cccc(OC)c2C1 (stereo not drawn)	-1.24
S=C(NCc1ccc2c(c1)OCO2)N1CCN(c2ncnc3c2oc2ccccc23)CC1	-1.09
CO/N=C(\C(=O)N[C@@H]1C(=O)N2C(C(=O)O)=C(C)CS[C@H]12)c1csc(N)n1	-9.72
CCC(=O)O[C@H]1CCC2C3CCC4=CC(=O)CC[C@]4(C)C3CC[C@@]21C (stereo partly drawn)	5.62
Cc1sc2c(c1C)C(c1ccc(Cl)cc1)=N[C@@H](CC(=O)Nc1ccc(O)cc1)c1nnc(C)n1-2	16.1
CCNCC(O)c1cccc(O)c1 (stereo not drawn)	-2.8
CCCC[C@@H](NC(=O)[C@@H](Cc1cn(C(=O)OC)c2ccccc12)NC(=O)[C@H](CC(C)(C)C)NC(=O)N1[C@H](C)CCC[C@@H]1C)C(=O)[O-]	-3.76
O=C(/C=C/C=C/c1ccc2c(c1)OCO2)N1CCCCC1	5.03
COc1ccc2[nH]c(C(=O)c3ccccc3)cc2c1	3.11
O=c1c2ccccc2nc2n1CCc1c-2[nH]c2ccccc12	-5.8
CN(C)c1ccccc1CN1CCCN(Cc2ccccc2N(C)C)C1c1ccncc1	-1.59

SMILES	result_ITMP [%]
CC(=O)NCCC(=O)N[C@@H](Cc1cnc[nH]1)C(=O)O	-1.53
CCc1c(C(=O)C(N)=O)c2c(OCC(=O)O)cccc2n1Cc1ccccc1	-6.74
CCN(CC)S(=O)(=O)c1ccc(C(=O)O)cc1	3.91
Cc1cc(C)nc(SCC(=O)Nc2ncc(Cc3cccc4ccccc34)s2)n1	-7.9
Oc1cc2c(c(Cl)c1O)CCNCC2c1ccccc1 (stereo not drawn)	-2.2
O=C(O)CCCCC1CCSS1 (stereo not drawn)	-8.17
COCC(=O)O[C@]1(CCN(C)CCCc2nc3ccccc3[nH]2)CCc2cc(F)ccc2[C@@H]1C(C)C	88.2
O=C(CS(=O)C(c1ccccc1)c1ccccc1)NO (stereo not drawn)	-2.43
COc1ccccc1N1CCN(CCCNc2cc(=O)n(C)c(=O)n2C)CC1	-1.86
CN1C[C@@H]2c3ccccc3Oc3ccc(Cl)cc3[C@H]2C1.CN1C[C@H]2c3ccccc3Oc3ccc(Cl)cc3[C@@H]2C1	65.2
O=C(Nc1cccc(Nc2ncc(Br)c(NCCc3cnc[nH]3)n2)c1)N1CCCC1	-3.46
CN/C(=N\c1ccc(C2=NNC(=O)CC2C)cc1)NC#N (stereo not drawn)	-1.8
CC(C)(O)CS(=O)(=O)Nc1ccc2c(c1)CCN(C(=O)COc1cccnc1)C2	-1.59
N#Cc1cc2c(OCC(O)CN3CCN(C(c4ccccc4)c4ccccc4)CC3)cccc2[nH]1 (racemic)	25.1
COc1cccc(-c2cc(F)ccc2[C@H]2Cc3nc(N)nc(C)c3C(=O)N2)n1	-3.17
CC(C)S(=O)(=O)NC[C@H](C)c1ccc(-c2ccc(CCNS(C)(=O)=O)cc2)cc1	-1.01
COc1nc(N)nc2c1ncn2[C@@H]1O[C@H](CO)[C@@H](O)[C@@H]1O	-10.5
OC[C@H]1O[C@H](O[C@H]2O[C@H](CO)[C@@H](O)[C@H](O)[C@H]2O)[C@H](O)[C@@H](O)[C@@H]1O	-2.3
CN(C)CCCn1cc(C2=C(c3c[nH]c4ccccc34)C(=O)NC2=O)c2ccccc21	-0.11
COc1ccccc1N1CCN(CCn2c(=O)[nH]c3c([nH]c4ccccc43)c2=O)CC1	-1.9
CSc1ccccc1Nc1nc(N2CCNCC2)nc2c(NCC3CC3)ncnc12	79.3

Reference: PMC13083723 (Patterns, 2026)
